# Assay results published in PubChem BioAssay AID1030 (National Center for Advancing Translational Sciences (NCATS), 2008).
# About 16,000 (7.3%) of roughly 220,000 compounds were called active. The shares of active, inactive and inconclusive entries below differ from those in the screen. Calls come from the whole dose curve; as a rule, active = well fitted inhibition curve with a large enough effect (not every such curve was filed as active); inconclusive = small, poorly fitted or top-dose-only effect, or another doubt; inactive = no such curve, though single readings can be large or run the other way. Potencies of inconclusive entries are left out as doubtful fits.
# Molecular target: Aldehyde dehydrogenase 1A1 (Homo sapiens) (UniProt P00352)
# Test: qHTS Assay for Inhibitors of Aldehyde Dehydrogenase 1 (ALDH1A1);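 for activity, negative = inhibition: plate controls were no enzyme wells and a reference inhibitor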
# Details: Purified ALDH1A1, NADH fluorescence, propionaldehyde substrate; series mostly up to 75.3 µM; activity, negative = inhibition: at the top concentration
# Potency is the fitted concentration of half-maximal effect; tags give direction and shape of the fitted curve.
# UniProt P00352, sequence (P00352 whole entry, looked up): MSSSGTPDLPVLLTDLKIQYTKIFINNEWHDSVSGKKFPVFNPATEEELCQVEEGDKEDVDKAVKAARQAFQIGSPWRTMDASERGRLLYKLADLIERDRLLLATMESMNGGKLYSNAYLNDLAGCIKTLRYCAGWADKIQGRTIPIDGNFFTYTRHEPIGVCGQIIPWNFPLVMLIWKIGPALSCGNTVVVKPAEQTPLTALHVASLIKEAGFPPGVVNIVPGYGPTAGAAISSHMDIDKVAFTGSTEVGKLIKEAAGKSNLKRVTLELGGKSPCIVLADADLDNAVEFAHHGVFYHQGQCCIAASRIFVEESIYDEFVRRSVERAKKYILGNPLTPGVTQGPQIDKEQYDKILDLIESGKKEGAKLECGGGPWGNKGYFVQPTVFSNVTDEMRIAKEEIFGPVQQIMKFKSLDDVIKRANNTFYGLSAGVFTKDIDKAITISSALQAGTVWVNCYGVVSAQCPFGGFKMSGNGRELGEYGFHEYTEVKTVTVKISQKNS
Compound,Potency,"activity, negative = inhibition"
CN(C)/C=N/C(=S)Nc1ccc(Br)cc1F,active: 22.4 µM,–
O=Nc1c(O)[nH]c2ccccc12.[Cu].[O-]/N=C1/C(=[OH+])Nc2ccccc21,–,inactive: 1.28% [at 13.5 µM]
S=C(Nc1cccnc1)NC1CCCC1,"inconclusive [inhibitor, single point]",–
Cn1c(SCC(=O)NCc2cccs2)nnc1-c1ccc(S(=O)(=O)N2CCCC2)cc1,–,inactive: -7.19%
Cc1cc(C2=NNC(=NC3CCCCC3)SC2)c(C)n1-c1c(C)n(C)n(-c2ccccc2)c1=O,"inconclusive [inhibitor, single point]",–
Cc1ccc(NC(=S)N2CCSC2c2cccs2)cc1 (stereo not given),"inconclusive [inhibitor, single point]",–
COc1cc(NC(=O)Cc2c(C(=O)O)[nH]c3ccccc23)cc(OC)c1OC,"inconclusive [inhibitor, partial curve]",–
Cc1ccc(S(=O)(=O)Nc2ccc(-c3nc4cc(NS(=O)(=O)c5ccc(C)cc5)ccc4o3)cc2)cc1,"inconclusive [inhibitor, partial curve]",–
O=S(=O)(Nc1ccc2nc(-c3ccc(Br)o3)[nH]c2c1)c1ccccc1,–,inactive: -15.6%
CCN1C(=O)C(CC(=O)Nc2ccc(Br)cc2)N(CCCc2ccccc2)C1=S (stereo not given),active: 12.6 µM,–
CCCCNC(=O)c1ccc(N2CCOCC2)c(NS(=O)(=O)c2ccc(OC)cc2)c1,active: 8.91 µM,–
NCCC[C@@H](N)C(=O)O,inactive,–
COc1cccc(Nc2ncc3nc(-c4cn(C)c5ccccc45)c(=O)n(CCC#N)c3n2)c1,"inconclusive [inhibitor, single point]",–
C[C@@]1(O)CCOC(=O)C1,–,inactive: 1.46% [at 20.9 µM]
CCOC(=O)CCN1CCN(C(=O)c2ccc(-n3c(=O)c(=O)[nH]c4ccccc43)cc2)CC1,"inconclusive [inhibitor, single point]",–
c1csc(-c2ccc3ccccc3n2)c1,"inconclusive [inhibitor, single point]",–
CC1(c2ccc(Cl)c(Cl)c2)NC(=S)N2C1NC(=S)N2c1ccccc1 (stereo not given),–,inactive: -9.55%
CCOP(=O)(c1ccccc1)C(O)c1ccc(Br)cc1 (stereo not given),–,inactive: 13.2%
CCCC(CCC(=O)Nc1ccn(-c2ccccc2)n1)C(=O)O (stereo not given),–,inactive: 2.3%
Cc1ccc(S(=O)(=O)c2nc(-c3ccccc3)oc2NCc2cccnc2)cc1,active: 28.2 µM,–
COc1ccc(CC(=O)Nc2cccc(-c3cn4ccccc4n3)c2)cc1,"inconclusive [inhibitor, partial curve]",–
COc1ccc(C(=O)/C=C/c2ccc(OC3CSC3)cc2)cc1OC,"inconclusive [inhibitor, single point]",–
O=C(Cc1coc2ccc3ccccc3c12)N1CCCC1,"inconclusive [inhibitor, single point]",–
CC(C)(C)C(=O)Oc1ccc2cc(-c3ccc4ccccc4n3)c(=O)oc2c1,"inconclusive [inhibitor, partial curve]",–
Cc1cc(Cl)ccc1OCc1n[nH]c(=S)n1C1CCCCC1,"inconclusive [inhibitor, partial curve, poor fit]",–

Compound,Potency,"activity, negative = inhibition"
COc1ccc(CN2C(=O)C(O)(CC(=O)c3ccc4c(c3)OCO4)c3ccccc32)cc1OC (stereo not given),active: 4.47 µM,–
c1cc(CN2CCN(C3CCCCCC3)CC2)ccn1,"inconclusive [inhibitor, single point]",–
Nc1ccc(-c2cc(N)n(-c3ccccc3)n2)cc1,active: 11.2 µM,–
Cc1cc2ccccn2c1C(=O)c1cccc([N+](=O)[O-])c1,–,inactive: -7.68%
COC(=O)CSc1cc(C)nc2ccc(OC)cc12,"inconclusive [inhibitor, single point]",–
O=C(Cn1cc(C(F)(F)F)cc(Cl)c1=O)Nc1ccc(N2CCOCC2)cc1,–,inactive: 1.87%
Cc1cc2nc(-c3ccc4c(c3)CCC4)ccn2n1,"inconclusive [inhibitor, partial curve]",–
C=CCn1c(N2CCN(c3ccc(OC)cc3)CC2)nc2c1c(=O)[nH]c(=O)n2C,"inconclusive [inhibitor, partial curve, poor fit]",–
CCOc1ncccc1C(=O)OCC(=O)N(CC(C)C)C1CCS(=O)(=O)C1 (stereo not given),–,inactive: 2.42%
Cc1ccc(CSCC(=O)N2CCN(c3ccccc3)CC2)cc1,"inconclusive [inhibitor, partial curve]",–
CCN1C(=O)/C(=C/c2ccc(OC)c(OC)c2)N=C1SCC(=O)NCc1ccco1,"inconclusive [inhibitor, partial curve]",–
CO[C@H]1COC(=O)[C@H](C)COC(=O)[C@@H](Cc2ccccc2)NC(=O)C/C=C\[C@H]1C,–,inactive: 3.38% [at 13.5 µM]
CO[C@H]1[C@H](O[C@H]2O[C@@H](C)[C@@H](O[C@@H]3C[C@](C)(O)[C@H](O)[C@H](C)O3)[C@@H](N(C)C)[C@@H]2O)[C@@H](CC=O)C[C@@H](C)[C@@H](O[C@H]2CC[C@H](N(C)C)[C@H](C)O2)/C=C\C=C/C[C@@H](C)OC(=O)C[C@H]1O,–,inactive: 1.84% [at 20.9 µM]
COc1ccc(CC(=O)Nc2ccc(C(=O)NC(C)(C)C)cc2)cc1OC,–,inactive: -0.463%
N#CCc1ccccc1[N+](=O)[O-],active: 25.1 µM,–
COC(=O)C1=C(C)N(C)C(=O)/C1=C\c1ccco1,–,inactive: 0.127%
O=S(=O)(c1ccc(F)cc1)N1CCN(C(=S)NCc2ccco2)CC1,"inconclusive [inhibitor, single point]",–
Cc1[nH]c2c(Cl)cccc2c1CCNC(=O)C1CCCCC1C(=O)OCC(F)(F)F (stereo not given),"inconclusive [inhibitor, partial curve]",–
CCCCc1nc(N2CCOCC2)c(C#N)c2c1CCCC2,"inconclusive [inhibitor, partial curve]",–
c1ccc(NCc2ccccn2)cc1,–,inactive: 1.48%
CC1CCC2(CC1)NC(=O)N(CC(=O)Nc1sc3c(c1C(N)=O)CCC3)C2=O (stereo not given),"inconclusive [inhibitor, partial curve]",–
CCOC(=O)CSc1nc2ccccc2n2cnnc12,active: 17.8 µM,–
CC(C)n1cnnc1SCC(=O)Nc1ccc(Br)cc1F,"inconclusive [inhibitor, partial curve]",–
CCCn1c(SCC(=O)Nc2nnc(-c3ccccc3)s2)nnc1-c1ccccn1,"inconclusive [inhibitor, partial curve]",–
C/C(=N\NC(=O)CNc1ccc(F)cc1)c1cc2ccccc2o1,active: 11.2 µM,–

Compound,Potency,"activity, negative = inhibition"
N#Cc1ccc(N2CCN(C(=O)c3cccc(F)c3)CC2)c(F)c1,–,inactive: -5.67%
Cc1ccc(NS(=O)(=O)c2cc(C(=O)N3CCc4ccccc4C3)ccc2Cl)cc1,–,inactive: 6.43%
COc1cc(/C=C/C(=O)c2cccs2)cc(OC)c1OC,active: 10 µM,–
O=C(Cn1c(SCC(=O)N2CCCc3ccccc32)nc2ccccc21)N1CCCC1,–,inactive: -1.88%
O=C(CN1C2=NCCCN2c2ccccc21)c1cccc(Br)c1,"inconclusive [inhibitor, single point]",–
Cc1cccc2cc(C#N)c(SCC(=O)N3CC(=O)Nc4ccccc43)nc12,"inconclusive [inhibitor, single point]",–
Cc1sc2nc(C3CC3)nc(SCC(=O)N3CCCc4ccccc43)c2c1C,"inconclusive [inhibitor, single point]",–
COc1ccc(N(CC(=O)N/N=C/c2cccc3c2OCCO3)S(=O)(=O)c2ccc(NC(C)=O)cc2)cc1,"inconclusive [inhibitor, partial curve]",–
Cc1cc(C(F)F)nn1CC(=O)NCc1ccccc1F,–,inactive: -9.14%
Cc1ccsc1C(=O)C1CCCN(Cc2cccn2-c2ccc(Cl)cn2)C1 (stereo not given),"inconclusive [inhibitor, partial curve]",–
N#CCCN(C(=O)CSc1nc(-c2ccccc2)cn1N)c1ccc(F)cc1,–,inactive: -5.99%
Cn1c(C(C)(O)C(O)c2ccccc2)nc2ccccc21 (stereo not given),–,inactive: -0.282%
C=CCn1c(-c2cccc(Cl)c2)n[nH]c1=S,active: 11.2 µM,–
COc1cccc(C(=O)Nc2ccc(N3CCCC3)cc2)c1,"inconclusive [inhibitor, partial curve]",–
CCOC(=O)c1c(NC(=O)CN2CCCc3ccccc32)sc(C)c1C,"inconclusive [inhibitor, single point]",–
CCN(CC)S(=O)(=O)c1ccc(NC(=O)CSc2nnc(-c3cccc(OC)c3)n2C)cc1,"inconclusive [inhibitor, single point]",–
O=C(COC(=O)/C=C/c1ccc(F)cc1)NCc1ccco1,–,inactive: 4.82%
CCOc1ccccc1NC(=O)CSc1c(C)n[nH]c1C,"inconclusive [inhibitor, single point]",–
CC(C)CCSc1cc(NCCO)c([N+](=O)[O-])c2nonc12,"inconclusive [inhibitor, single point]",–
Cc1nnc(SCc2cc(=O)oc3cc(O)ccc23)n1Cc1ccccc1,–,inactive: -6.97%
Cc1cccc(C(=O)Nc2nc(C)c(C(=O)Nc3ccc4c(c3)CCC4)s2)c1,"inconclusive [inhibitor, single point]",–
CC(C)n1nnc2c(=O)oc3ccccc3c21,–,inactive: 7.23%
O=C(NCCO)c1cc2c(s1)CCC2,"inconclusive [inhibitor, single point]",–
Cc1ccc(S(=O)(=O)Nc2ccc(Cl)cc2C(=O)c2ccc(F)cc2)cc1,–,inactive: -10.9%
CCN1CCN(c2cc(C)c3cc(NC(=S)N4CCCCC4)ccc3n2)CC1,"inconclusive [inhibitor, full curve]",–
